Out of some 150,000 compounds screened, about 540 (0.36%) showed an effect of 50% or more. This is one part of the list.

The subject of the assay is Plasmodium falciparum. Nature of the assay: Primary screen in NF54 nanoGlo assay, in single point, at 2uM, 72h; a lower Z score goes with more inhibition. To be noted: timepoint 72 hour. The assay is classed as functional, Erythrocyte.
Turning to `CCNC/C=C/COc1ccc(C(C)(C)C)cc1`, the “% Inhibition” value is given as -5% and the Z score was 0.52.

As to `CCCc1ccc(CN2C[C@H](O)[C@@H](N3CCN(C)CC3)C2)o1`, the “% Inhibition” value is 14% and the Z score is on record as -1.79.

Consider `Cc1nn(-c2cc(N(C)C)ncn2)c(C)c1CCC(=O)N1CCCC1`, for which the “% Inhibition” value was -1% and the Z score stood at 0.21.

Take `Cn1nc(CN(C(=O)c2cccs2)C2CCCC2)c2c1CCC2`: the “% Inhibition” value is on record as -18% and the Z score is given as 3.5.

With `CCN1CC2(CCN(CC(=O)NC(C)C)CC2)C[C@@H](c2ccccc2)C1=O`, the “% Inhibition” value is -24% and the Z score is recorded as 2.1.

Consider `CCn1nc(CC2CC2)nc1Cn1nc2ccccc2n1`, for which the “% Inhibition” value is on record as -2% and the Z score turned out to be 0.36.

Turning to `CCc1nocc1CN(C)C(=O)[C@H]1CCc2cncn2C1`, the “% Inhibition” value is -5% and the Z score is 0.9.

Turning to `COc1ccc(N2CCN(C(=O)CNc3ccc4c(c3)OC(F)(F)O4)CC2)cc1`, the “% Inhibition” value is recorded as -22% and the Z score is 2.24.

Take `CCC(=O)N1CCc2cc(CNC(=O)c3ccc(OC)cc3)ccc21`: the “% Inhibition” value was -9% and the Z score was found to be 1.69.

Regarding `CCCNC(=O)N1CC[C@@H](CC(=O)O)[C@@H](CC2=NCCc3cc(F)ccc32)C1`, the “% Inhibition” value was -1% and the Z score worked out at 0.1.

Consider `COCCN(Cc1nc(-c2ccccc2C)no1)C1CC1`, for which the “% Inhibition” value is recorded as -10% and the Z score is recorded as 1.47.

As for `COc1ccc2c(c1)CCCN2Cc1c(O)c(C(=O)Oc2ccccc2)cc2ccccc12`, the “% Inhibition” value is recorded as -6% and the Z score came out at 0.73.

For `C[C@@]1(C2CC2)COCCN1C(=O)c1cncc(N2CCCC2)n1`, the “% Inhibition” value was 6% and the Z score is -0.7.

For the compound `O=C1NCCCc2[nH]c(-c3ccc4c(c3)OCO4)nc21`, the “% Inhibition” value was 0% and the Z score is 0.09.

For `CCOc1cc(C(=O)O)c(N)cc1OC`, the “% Inhibition” value was -2% and the Z score is recorded as 0.3.

For `C[C@H](NC(=O)c1ccc2c(c1)OCCO2)c1ccc2[nH]ccc2c1`, the “% Inhibition” value is -26% and the Z score was 2.56.

For `CC(=O)NC(c1ccccc1F)C(C)NC1CCOc2ccccc21` (configuration not stated), the “% Inhibition” value was -4% and the Z score is 0.64.

`N#Cc1cc(C(=O)Nc2cccc3c2CCO3)ccc1F`: the “% Inhibition” value was 0% and the Z score is reported as -0.03.

Regarding `Cn1c(-c2cccs2)c(CN(Cc2ccccc2)C(=O)Nc2ccc(Cl)cc2)c2ccccc21`, the “% Inhibition” value is on record as -16% and the Z score amounted to 1.98.

On to `CNc1ccnc(N[C@H]2CC(C)(C)Cc3nc(N(C)Cc4ccccc4)ncc32)n1`, for which the “% Inhibition” value worked out at 7% and the Z score was -1.42.

For the compound `O=C(N[C@@H]1CN(C(=O)CC2CCCCC2)CC[C@@H]1CO)c1cccnc1`, the “% Inhibition” value amounted to 6% and the Z score is -0.78.

As for `Cc1nc(-c2c[nH]c(C(=O)Nc3ccc(=O)n(Cc4ccccc4Cl)c3)c2)cs1`, the “% Inhibition” value amounted to 7% and the Z score is reported as -1.33.

For `CCOC(=O)c1nnc(-c2ccns2)o1`, the “% Inhibition” value is -4% and the Z score is listed as 0.69.

With `CCN1CCCC[C@H]1C(=O)N1CCC(c2nc(C)no2)CC1`, the “% Inhibition” value is -1% and the Z score is on record as 0.08.

On to `CC[C@H]1CC[C@H](C(=O)N2CCC[C@H](O)CC2)CC1`, for which the “% Inhibition” value is recorded as -24% and the Z score is given as 2.61.

As for `Cc1c(CN2CC(N3CCCC[C@@H]3C)C2)cnn1C`, the “% Inhibition” value is on record as -11% and the Z score came out at 2.11.

As to `O=C1CN(Cc2cccc(C(F)(F)F)c2)S(=O)(=O)c2ccccc2N1Cc1ccccc1`, the “% Inhibition” value is 19% and the Z score was -2.24.

On to `CCc1n[nH]c(NC(=O)c2nc(C3CC3)ncc2Br)n1`, for which the “% Inhibition” value is 1% and the Z score was -0.26.

For the compound `CC(C)Nc1c(-c2ccc(Cl)cc2)cn(C(C)C)c1-c1ccc(Cl)cc1`, the “% Inhibition” value is listed as -32% and the Z score was determined as 3.7.

Regarding `N#C[C@H](C(=O)Nc1ccc(F)c(Cl)c1)C(=O)c1cocn1`, the “% Inhibition” value is reported as -7% and the Z score is on record as 1.33.

As to `CC(C)n1cc(CNc2ncccn2)cn1`, the “% Inhibition” value is given as -3% and the Z score is given as 0.31.

Consider `CN1CCN(C(=O)c2ccccc2N2CCC(NC(=O)c3ccccc3)CC2)CC1`, for which the “% Inhibition” value was 9% and the Z score is -1.65.

Turning to `CN(C)c1ccc(C(=O)NC(c2cnn(C)c2)[C@H]2C[C@@H](O)C2)cc1` (some centres not stated), the “% Inhibition” value was -13% and the Z score is recorded as 1.47.

Consider `N#Cc1ccc(OCC2(C#N)CC2)c(F)c1`, for which the “% Inhibition” value is recorded as 1% and the Z score is -0.14.

In the case of `O=C(O)c1ccc(N(C(=O)c2ccc3c(c2)OCO3)C(=O)c2ccc3c(c2)OCO3)cc1O`, the “% Inhibition” value was 31% and the Z score was -4.48.

For the compound `CC(C)c1ccc(N2C[C@@H](C(=O)N3CC(c4ccccn4)C3)CC2=O)cc1`, the “% Inhibition” value is on record as -6% and the Z score worked out at 1.13.

`Cn1ncc(N2CCO[C@@H](CCNC(=O)C3(C)CCCCC3)C2)cc1=O`: the “% Inhibition” value is on record as -6% and the Z score was determined as 1.1.

Turning to `O=C(NC1CCCCC1)[C@@H]1C[C@@H](O)CN1C1CCN(C(=O)C2CCOCC2)CC1`, the “% Inhibition” value is given as -4% and the Z score turned out to be 0.68.

In the case of `COCCOc1cc2cc(c1)C(=O)NCCNC(=O)N[C@H]1CCN(C(=O)COc3ccc(C)cc3)C[C@@H]1OCc1cccc(c1)O2`, the “% Inhibition” value turned out to be 4% and the Z score was -0.55.

With `Cc1[nH]nc(C(N)=O)c1NC(=O)Cc1cccc(Cl)c1`, the “% Inhibition” value was -11% and the Z score is 1.72.

Consider `Cc1nccn1CCN(C)C(=O)N[C@@H](C)c1cnn(C)c1`, for which the “% Inhibition” value is recorded as -1% and the Z score amounted to 0.12.

What is called % Inhibition is the relative decrease from the control value, in per cent.
